# What was measured:
# [1] = molecular target: hERG channels expressed in HEK293 cells (Homo sapiens, UniProt Q12809); assay: cell-based
# [2] = test system: bleomycin-induced pulmonary fibrosis; assay: Bleomycin-induced pulmonary fibrosis in mice; assay type: in vivo, mouse; details: QD×39, C57BL/6 mice
# Chain of hERG channels expressed in HEK293 cells (Q12809 whole entry): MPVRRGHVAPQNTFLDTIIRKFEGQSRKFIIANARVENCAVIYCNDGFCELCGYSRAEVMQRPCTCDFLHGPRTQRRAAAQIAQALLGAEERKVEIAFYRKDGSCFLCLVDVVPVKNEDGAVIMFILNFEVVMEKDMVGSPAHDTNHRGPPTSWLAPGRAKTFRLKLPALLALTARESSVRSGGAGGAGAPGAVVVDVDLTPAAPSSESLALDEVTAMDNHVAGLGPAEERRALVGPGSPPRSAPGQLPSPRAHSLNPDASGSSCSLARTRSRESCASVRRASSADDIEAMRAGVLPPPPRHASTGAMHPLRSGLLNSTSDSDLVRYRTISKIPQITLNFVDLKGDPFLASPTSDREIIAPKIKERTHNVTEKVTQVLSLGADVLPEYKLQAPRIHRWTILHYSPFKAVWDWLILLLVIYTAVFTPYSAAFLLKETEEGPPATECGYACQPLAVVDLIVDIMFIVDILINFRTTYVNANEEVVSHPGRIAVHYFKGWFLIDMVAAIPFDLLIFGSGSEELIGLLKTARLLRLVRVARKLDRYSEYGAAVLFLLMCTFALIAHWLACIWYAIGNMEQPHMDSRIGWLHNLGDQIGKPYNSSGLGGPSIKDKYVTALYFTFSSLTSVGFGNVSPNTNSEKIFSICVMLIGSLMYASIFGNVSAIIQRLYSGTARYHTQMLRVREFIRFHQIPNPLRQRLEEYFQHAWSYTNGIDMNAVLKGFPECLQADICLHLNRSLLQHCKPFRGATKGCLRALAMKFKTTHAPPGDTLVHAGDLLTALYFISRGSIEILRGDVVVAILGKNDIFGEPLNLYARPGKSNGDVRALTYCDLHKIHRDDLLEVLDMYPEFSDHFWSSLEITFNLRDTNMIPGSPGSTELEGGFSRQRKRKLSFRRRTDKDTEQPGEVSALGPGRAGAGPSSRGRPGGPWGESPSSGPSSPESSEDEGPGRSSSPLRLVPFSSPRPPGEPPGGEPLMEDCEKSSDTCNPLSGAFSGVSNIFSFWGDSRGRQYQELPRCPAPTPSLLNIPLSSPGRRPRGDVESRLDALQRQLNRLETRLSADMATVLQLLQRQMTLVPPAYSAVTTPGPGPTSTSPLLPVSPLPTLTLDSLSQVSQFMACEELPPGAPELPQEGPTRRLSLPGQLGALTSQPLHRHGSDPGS
Compound,IC50 [1] [µM],BALF inflammatory infiltrate [2]
CC(=O)N[C@]12CCC(C)(C)C[C@H]1[C@H]1C(=O)C=C3[C@@]4(C)C=C(C#N)C(=O)C(C)(C)[C@@H]4CC[C@@]3(C)[C@]1(C)CC2 [Compound 63170],4.9,
"CC1(C)CC[C@]2(NC(=O)C(C)(F)F)CC[C@]3(C)[C@H](C(=O)C=C4[C@@]5(C)C=C(C#N)C(=O)C(C)(C)[C@@H]5CC[C@]43C)[C@@H]2C1 [RTA 408, N-((4aS,6aR,6bS,8aR,12aS,14aR,14bS)-11-cyano-2,2,6a,6b,9,9,12a-heptamethyl-10,14-dioxo-1,2,3,4,4a,5,6,6a,6b,7,8,8a,9,10,12a,14,14a,14b-octadecahydropicen-4a-yl)-2,2-difluoropropanamide]",12.4,A notable reduction in inflammatory infiltrate was observed
CC1(C)CC[C@]2(NC(=O)C(F)(F)F)CC[C@]3(C)[C@H](C(=O)C=C4[C@@]5(C)C=C(C#N)C(=O)C(C)(C)[C@@H]5CC[C@]43C)[C@@H]2C1 [Compound 63171],15.7,
CCC(=O)N[C@]12CCC(C)(C)C[C@H]1[C@H]1C(=O)C=C3[C@@]4(C)C=C(C#N)C(=O)C(C)(C)[C@@H]4CC[C@@]3(C)[C@]1(C)CC2 [Compound 63189],3.8,
